Where a name gives a salt, the structure may show the parent alone. ± gives the standard deviation of the averaged measurements. The full ranking holds about 2,600 compounds; the median of “MBP+ mature oligodendrocyte number relative to DMSO vehicle control” is about -0.34, and the highest 2% start at about 13. Some of the results follow.
The molecules below were run on jimpy (Plp1 jimpy) mouse iPSC-derived oligodendrocyte progenitor cells (assay: MBP+ mature oligodendrocyte number relative to DMSO vehicle control (SDs above negative control mean); higher = more surviving jimpy oligodendrocytes (rescue)). Conditions: 10 µM; 3 days.
`C/C(O)=C(\C#N)C(=O)Nc1ccc(C(F)(F)F)cc1` [Teriflunomide] was tested, and the “MBP+ mature oligodendrocyte number” value was 0.913. `COc1nc(C)cnc1NS(=O)(=O)c1cccnc1-c1ccc(-c2nnco2)cc1` [Zibotentan (ZD4054)] was tested, and the “MBP+ mature oligodendrocyte number” value was 2.47. For `Cn1cc(/C=C/C(=O)c2cccc(F)c2)cc1/C=C/C(=O)NO`, the “MBP+ mature oligodendrocyte number” value was 3.04. With `Nc1nccc2c1ncn2C1C=C(CO)C(O)C1O` (stereo unspecified) [3-Deazaneplanocin A (DZNeP)] the “MBP+ mature oligodendrocyte number” value was -6.27. `C[C@@H]1O[C@@H](OC[C@H]2O[C@@H](Oc3c(-c4ccc(O)c(O)c4)oc4cc(O)cc(O)c4c3=O)[C@H](O)[C@@H](O)[C@@H]2O)[C@H](O)[C@H](O)[C@H]1O` [Rutin] was tested, and the “MBP+ mature oligodendrocyte number” value was -0.724. For `CCCC(=O)Nc1ccc(OCC(O)CNC(C)C)c(C(C)=O)c1` (stereo unspecified) [Acebutolol HCl], the “MBP+ mature oligodendrocyte number” value was -2.04. With `COc1ccnc2[nH]cc(C(=O)C(=O)N3CCN(C(=O)c4ccccc4)C[C@H]3C)c12` the “MBP+ mature oligodendrocyte number” value was 0.263. `CO/N=C(\C(=O)N[C@@H]1C(=O)N2C(C(=O)O)=C(CSC(=O)c3ccco3)CS[C@H]12)c1csc(N)n1` [Ceftiofur HCl] was tested, and the “MBP+ mature oligodendrocyte number” value was 0.787. `CN1[C@@H]2CC[C@H]1C[C@@H](OC(c1ccccc1)c1ccccc1)C2` [Benztropine mesylate] was tested, and the “MBP+ mature oligodendrocyte number” value was -0.301 ± 0.8. For `N=C(N)c1ccc(N=NNc2ccc(C(=N)N)cc2)cc1` [Diminazene Aceturate], the “MBP+ mature oligodendrocyte number” value was -2.47. With `C[C@H](CCC(=O)O)[C@H]1CC[C@H]2[C@@H]3C[C@H](O)[C@@H]4C[C@H](O)CC[C@]4(C)[C@H]3CC[C@]12C` [Hyodeoxycholic acid (HDCA)] the “MBP+ mature oligodendrocyte number” value was 0.227. For `CC1(C)C(=O)N(CCN2CCC(C(=O)c3ccc(F)cc3)CC2)c2ccccc21` [LY-310,762 hydrochloride], the “MBP+ mature oligodendrocyte number” value was -3.73. In the case of `CC(C)(C)OC(=O)N[C@H]1CCCCC/C=C\[C@@H]2C[C@@]2(C(=O)NS(=O)(=O)C2CC2)NC(=O)[C@@H]2C[C@@H](OC(=O)N3Cc4cccc(F)c4C3)CN2C1=O` [Danoprevir (ITMN-191)], the “MBP+ mature oligodendrocyte number” value is reported as 0.109. `NC(=O)Nc1sc(-c2ccc(F)cc2)cc1C(N)=O` was tested, and the “MBP+ mature oligodendrocyte number” value was -5.93. For `N=C(N)SCCN` [2-(2-Aminoethyl)isothiourea dihydrobromide], the “MBP+ mature oligodendrocyte number” value was -1.14. With `COc1cc2ncnc(Nc3ccc(F)c(Cl)c3)c2cc1NC(=O)/C=C/CN1CCCCC1` the “MBP+ mature oligodendrocyte number” value was -5.93. `CCCCC1C(=O)N(c2ccccc2)N(c2ccccc2)C1=O` [Phenylbutazone] was tested, and the “MBP+ mature oligodendrocyte number” value was 0.489 ± 0.94. `COCCCOc1cc(C[C@@H](C[C@H](N)[C@@H](O)C[C@H](C(=O)NCC(C)(C)C(N)=O)C(C)C)C(C)C)ccc1OC` [Aliskiren Hemifumarate] was tested, and the “MBP+ mature oligodendrocyte number” value was 1.79. In the case of `CCCc1nc2c(C)cc(-c3nc4ccccc4n3C)cc2n1Cc1ccc(-c2ccccc2C(=O)O)cc1` [Telmisartan], the “MBP+ mature oligodendrocyte number” value is reported as 0.523. `O=C(O)Cc1ccc(O)c(O)c1` [3,4-Dihydroxyphenylacetic acid] was tested, and the “MBP+ mature oligodendrocyte number” value was -0.387. In the case of `CC(=O)/N=c1/sc(S(N)(=O)=O)nn1C` [Methazolamide], the “MBP+ mature oligodendrocyte number” value is reported as 1.13 ± 1.5. `CC1=CC(=O)c2ccccc2C1=O` [Menadione] was tested, and the “MBP+ mature oligodendrocyte number” value was -4.97. For `Cc1ccc(C(=O)N(CCCN)[C@@H](c2nc3cc(Cl)ccc3c(=O)n2Cc2ccccc2)C(C)C)cc1`, the “MBP+ mature oligodendrocyte number” value was under -6.7. `N=C(N)N1CCc2ccccc2C1` [Debrisoquin sulfate] was tested, and the “MBP+ mature oligodendrocyte number” value was 0.869. With `C[C@@H](Oc1cc(-c2cnn(C3CCNCC3)c2)cnc1N)c1c(Cl)ccc(F)c1Cl` the “MBP+ mature oligodendrocyte number” value was -6.61. For `CCC(CC)(NC(=O)C(C)C)C(=O)N[C@@H](CCCN=C(N)N)C(=O)NC1(C(=O)NC(c2ccc(F)cc2)c2ccc(F)cc2)CCCC1`, the “MBP+ mature oligodendrocyte number” value was 4.04. In the case of `CCN(CC)CCCN(c1ccccc1)C1Cc2ccccc2C1` [Aprindine hydrochloride], the “MBP+ mature oligodendrocyte number” value is reported as 0.717. `COCCCOc1ccnc(C[S+]([O-])c2nc3ccccc3[nH]2)c1C` (stereo unspecified) [Rabeprazole sodium] was tested, and the “MBP+ mature oligodendrocyte number” value was 1.61. In the case of `Cc1cc(Nc2ncc(Cl)c(Nc3ccccc3S(=O)(=O)C(C)C)n2)c(OC(C)C)cc1C1CCNCC1`, the “MBP+ mature oligodendrocyte number” value is reported as under -6.35. In the case of `O=C(O)Cc1cc(I)c(Oc2ccc(O)c(I)c2)c(I)c1` [Tiratricol], the “MBP+ mature oligodendrocyte number” value is reported as 3.28. `NS(=O)(=O)C#Cc1ccccc1` [Pifithrin-mu] was tested, and the “MBP+ mature oligodendrocyte number” value was -2.1. In the case of `Nc1c(S(=O)(=O)O)cc(Nc2ccc(Nc3nc(Cl)nc(Nc4cccc(S(=O)(=O)O)c4)n3)c(S(=O)(=O)O)c2)c2c1C(=O)c1ccccc1C2=O` [Reactive Blue 2], the “MBP+ mature oligodendrocyte number” value is reported as 0.0387. `CSc1nc(N)c2ncn([C@@H]3O[C@H](COP(=O)(O)OP(=O)(O)O)[C@H](O)C3O)c2n1` (stereo partly specified) was tested, and the “MBP+ mature oligodendrocyte number” value was -1.18. In the case of `Cc1ccc(C(=O)C(C)CN2CCCCC2)cc1` (stereo unspecified) [Tolperisone HCl], the “MBP+ mature oligodendrocyte number” value is reported as 5.05. For `CNCC[C@@H](Oc1ccccc1C)c1ccccc1` [Atomoxetine HCl], the “MBP+ mature oligodendrocyte number” value was 1.53. With `CNCC[C@@H](Oc1ccccc1C)c1ccccc1` [Tomoxetine] the “MBP+ mature oligodendrocyte number” value was 0.61. `c1ccc(CN2CCC3(CCCc4ccccc43)CC2)cc1` [L-687,384 hydrochloride] was tested, and the “MBP+ mature oligodendrocyte number” value was 0.735. In the case of `Cc1c(C(=O)NN2CCCCC2)nn(-c2ccc(Cl)cc2Cl)c1-c1ccc(Cl)cc1` [Rimonabant], the “MBP+ mature oligodendrocyte number” value is reported as 1.14. `COc1cc2c(cc1OC)CC(=O)N(CCCN(C)C[C@H]1Cc3cc(OC)c(OC)cc31)CC2` [Ivabradine HCl] was tested, and the “MBP+ mature oligodendrocyte number” value was 0.883. In the case of `C[C@H]1c2cccc(O)c2C(=O)C2=C(O)[C@]3(O)C(=O)C(C(N)=O)=C(O)[C@@H](N(C)C)[C@@H]3[C@@H](O)[C@@H]21` [Doxycycline Hyclate], the “MBP+ mature oligodendrocyte number” value is reported as 9.53. `C[C@H]1c2cccc(O)c2C(=O)C2=C(O)[C@]3(O)C(=O)C(C(N)=O)=C(O)[C@@H](N(C)C)[C@@H]3[C@@H](O)[C@@H]21` [Doxycycline HCl] was tested, and the “MBP+ mature oligodendrocyte number” value was 3.76. `C[C@H]1c2cccc(O)c2C(=O)C2=C(O)[C@]3(O)C(=O)C(C(N)=O)=C(O)[C@@H](N(C)C)[C@@H]3[C@@H](O)[C@@H]21` [Doxycycline hydrochloride] was tested, and the “MBP+ mature oligodendrocyte number” value was 4.9. For `Clc1ccc(C(Cn2ccnc2)OCc2ccsc2Cl)c(Cl)c1` (stereo unspecified) [Tioconazole], the “MBP+ mature oligodendrocyte number” value was 6.28. `O=C(O)CNC(=O)C(CS)Cc1ccccc1` (racemic) [DL-Thiorphan] was tested, and the “MBP+ mature oligodendrocyte number” value was -0.604. `c1cnc(N2CCN(Cc3ccc4c(c3)OCO4)CC2)nc1` [Piribedil maleate] was tested, and the “MBP+ mature oligodendrocyte number” value was 0.146. For `C[C@](N)(Cc1ccc(O)c(O)c1)C(=O)O` [L-alpha-Methyl DOPA], the “MBP+ mature oligodendrocyte number” value was -0.127.

From the supplement of paper PMC6135742
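Further: 10 µM single dose with 3-day oligodendrocyte differentiation.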
